Source: US7579486B2, “Metalloprotein inhibitors” (Regents of the University of California, San Diego, priority 2004, dated 2009)
pIC50: −log10 of the molar value. Read-outs that look alike come from different tables or passages of the source.

Columns and labels:
[1] = molecular target: T1, human MMP-3 catalytic domain (Homo sapiens, UniProt P08254); assay: biochemical
[2] = molecular target: T1, human MMP-3 catalytic domain; settings: for pIC50: read-out: IC50 against MMP-3, fluorescence-based assay, 1 h at 37° C. with inhibitor, pH 6.0

| SMILES | pIC50 [2] | pIC50 [1] | also measured |
| --- | --- | --- | --- |
| O=C(Nc1ccc(-c2ccccc2)cc1)c1cc(=O)c(O)co1 [CA1] | – | – | inhibition at 50 µM ([1]; read-out: inhibition of MMP-3): 25% |
| Cc1cc(=O)c(O)c(C(=O)NCc2ccc(-c3ccc(-c4ccccc4)cc3)cc2)o1 [AM-6, 3-Hydroxy-6-methyl-pyran-4(1H)-one-2-carboxy-N-(4-biphenylbenzylamide)] | 7.72 | – | IC50 against MMP-3, in words [2]: nanomolar range; selectivity for MMP-3 over MMP-2 [2]: > 2500 fold |
| Cc1cc(=O)c(O)c(C(=O)Nc2ccc(-c3ccccc3)cc2)o1 [AM-1, 3-Hydroxy-6-methyl-pyran-4(1H)-one-2-carboxy-N-(4-biphenylamide)] | < 4.30 | – | – |
| Cc1cc(=O)c(O)c(C(=O)NCc2ccc(-c3ccccc3)cc2)[nH]1 [AM-2/NH, N-(biphenyl-4-ylmethyl)-3-hydroxy-6-methyl-4-oxo-1,4-dihydropyridine-2-carboxamide] | – | 6.03 | – |
| COc1ccc(CNC(=O)c2oc(C)cc(=O)c2O)cc1 [AM-4] | 5.62 | – | – |
| O=C(CCCc1ccccc1)NCc1cc(=O)c(O)co1 [KA4] | – | 3.40 | – |
| O=C(Cc1ccccc1)NCc1cc(=O)c(O)co1 [KA2] | – | 3.70 | – |
| Cc1cc(=O)c(O)c(C(=O)NCc2ccc(-c3ccccc3)cc2)o1 [AM-2, 3-Hydroxy-6-methyl-pyran-4(1)-one-2-carboxy-N-(4-phenylbenzylamide)] | 6.62 | – | IC50 against MMP-3, in words [2]: nanomolar range |
| O=C(NCc1ccc(-c2ccccc2)cc1)c1cccc(=O)n1O [compound 20] | – | 6.25 | – |

Continued, in another order:

| pIC50 [2] | pIC50 [1] | SMILES | also measured |
| --- | --- | --- | --- |
| – | 4.05 | O=C(CCc1ccccc1)NCc1cc(=S)c(O)co1 [TKA3] | – |
| – | 7.15 | O=C(NCc1ccc(/C=C/c2ccccc2)cc1)c1occc(=O)c1O [PY-Stil, (E)-3-hydroxy-4-oxo-N-(4-styrylbenzyl)-4H-pyran-2-carboxamide] | – |
| – | 3.03 | O=C(CCc1ccccc1)NCc1cc(=O)c(O)co1 [KA3] | – |
| 8.00 | – | Cc1cc(=O)c(O)c(C(=O)NCc2ccc(-c3ccc(C#N)cc3)cc2)o1 [AM-5, 3-Hydroxy-6-methyl-pyran-4(1H)-one-2-carboxy-N-(4-(4-cyanophenyl)benzylamide)] | IC50 against MMP-3, in words [2]: nanomolar range |
